B1: Masked mLcn2-Fc: peptide 16 fused via MMP9-cleavable linker to N-terminus of mLcn2, fused to IgG1 Fc; SEQ ID NO:21 (protein, listed as Homo sapiens)
chain: AGSCWSPLPFMCGGSVPLSLYSGSQDSTSDLIPAPPLSKVPLQQNFQDNQFHGKWYVVGLAGNRILRDDQHPMNMYATIYELKEDKSYNVTSVISSHKKCEYTIATFVPGSQPGEFTLGNIKSYGDKTSYLVRVVSTDYNQYAVVFFKLAEDNAEFFAITIYGRTKELASELKENFIRFSKSLGLPENHIVFPVPIDQCIDGSRSGGTSGGGSVPGSGSSGSTSGSGKSSEGSGQ[human IgG1 Fc and a few adjoining residues cut from this listing]
B2: Mxx9 mLcn2-Fc: masked mLcn2-Fc with inactive MMP9 cleavage site (negative control), SEQ ID NO:22 (protein, listed as Homo sapiens)
chain: AGSCWSPLPFMCGGSVPGSGSSGSQDSTSDLIPAPPLSKVPLQQNFQDNQFHGKWYVVGLAGNRILRDDQHPMNMYATIYELKEDKSYNVTSVISSHKKCEYTIATFVPGSQPGEFTLGNIKSYGDKTSYLVRVVSTDYNQYAVVFFKLAEDNAEFFAITIYGRTKELASELKENFIRFSKSLGLPENHIVFPVPIDQCIDGSRSGGTSGGGSVPGSGSSGSTSGSGKSSEGSGQ[human IgG1 Fc and a few adjoining residues cut from this listing]

Key:
CTLA-4 = test: Size-exclusion chromatography analysis of CTLA-4 binding to mLcn2-Fc constructs; details: for SEC elution volume of construct incubated with CTLA-4: Superdex 200, apo CTLA-4 13.0 mL, apo constructs ~12.7 mL
[1] = target: T1, Monomeric extracellular CTLA-4 (Homo sapiens, UniProt P16410); test: SPR of masked, unmasked and unmodified mLcn2-Fc on immobilized monomeric CTLA-4; type: binding; details: monomeric CTLA-4 tethered to the chip
T1 construct: Monomeric extracellular CTLA-4 was immobilized at low density on a CM5 chip
T1 sequence (P16410 36-161 limits assumed): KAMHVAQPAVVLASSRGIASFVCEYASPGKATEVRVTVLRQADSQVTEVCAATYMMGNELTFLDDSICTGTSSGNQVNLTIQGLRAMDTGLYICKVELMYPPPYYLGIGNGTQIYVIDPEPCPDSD
Source text: (§1) FIG. 3A-3D: Design and activation of covalently masked mLcn2-Fc in vitro. FIG. 3A is cartoon of MMP9 substrate-containing linker (Masked) and uncleavable linker Mxx9; protease substrate sequences in red box. Sequence legend: GGSVPLSLYSGG (SEQ ID NO:46); GGSVPGSGSSGG (SEQ ID NO:47). […] FIG. 3C is a graph of SPR of masked, MMP9-treated unmasked, and unmodified mLcn2-Fc binding to CTLA-4: Top: Sensorgram of unmodified (blue), MMP9-treated unmasked (green), and masked mLCN2-Fc (red) analytes at concentration of 3000 nM. Bottom: Sensorgrams of masked (left) and unmasked mLcn2-Fc (right) analytes at concentrations of 3000; 1000; 300; 100; and 30 nM. FIG. 3D is a graph of flow cytometric analysis of mLcn2-Fc constructs binding to mouse T lymphocytes. […] Regulatory T cells were gated and analyzed. P values based on quadruplicate analyses were calculated against neg. control (AF647).
FIG. 8A-8D: Design and activation of masked mLcn2-Fc in vitro. […] Alexa Fluor 647-labeled unmodified, masked, and unmasked mLcn2-Fc were incubated with splenocytes from Foxp3gfp/KI DBA/2 mice and analyzed via flow cytometry. Regulatory T-cells were isolated by forward and side scatters, DAPI− staining, and GFP+ fluorescence. Four experiments on two murine spleens were performed and the averages were calculated±s.d. P values were calculated for the difference in AF647 staining. […]

[2] = test system: murine regulatory T-cells; test: Flow cytometry of AF647-labeled mLcn2-Fc constructs binding to murine regulatory T-cells; type: cell-based; details: splenocytes from Foxp3gfp/KI DBA/2 mice; P=0.004 vs unmodified, P=0.003 vs unmasked mLcn2-Fc
Source text: as §1
FIG. 8A-8D: Design and activation of masked mLcn2-Fc in vitro. […] Alexa Fluor 647-labeled unmodified, masked, and unmasked mLcn2-Fc were incubated with splenocytes from Foxp3gfp/KI DBA/2 mice and analyzed via flow cytometry. Regulatory T-cells were isolated by forward and side scatters, DAPI− staining, and GFP+ fluorescence. Four experiments on two murine spleens were performed and the averages were calculated±s.d. P values were calculated for the difference in AF647 staining.

[3] = test system: human CTLA4-Fc on Tni insect cells; test: Flow cytometry of Tni insect cells transiently expressing human CTLA4-Fc; type: cell-based; details: Alexa Fluor-647 conjugated variants
Source text: FIG. 10C: Flow cytometry analysis of Tni insect cells induced to transiently express human CTLA4-Fc. Cells were stained with Alexa Fluor-647 conjugated mLcn2-Fc variants and gated for Forward scatter/Side scatter, DAPI^−, singlet size (pulse width), and APC. Uninfected cells stained with mLcn2-Fc are shown in grey as a negative control.

[4] = test system: tumor-infiltrating lymphocytes (TILs) in B16 tumor tissues; test: In vivo detection of mLcn2 variants in B16 tumor tissues (IHC); details: i.v. 100 μg, melanoma-bearing mice, tumor samples 72 hr post-dose
Description: FIG. 4: In vivo detection of mLcn2 variants (CTLA-4 binding protein variants) in B16 tumor tissues.
(§2) FIG. 9: Biodistribution of mLcn2-Fc constructs in vivo. (A-C) Naïve mice were injected i.v. with 100 μg of indicated mLcn2-Fc construct and tissue samples were collected 48 hr. post-dose. Cryosections were stained for CD4 or CD8 (medium gray) and human IgG (light gray) from the thymus (A), spleen (B), and pituitary gland (C, IgG only). (D) Melanoma-bearing mice were injected as above and tumor samples were collected 72 hr. post-dose. 4′,6-diamidino-2-phenylindole (DAPI) nuclear staining shown in dark gray.
FIG. 17: Melanoma-bearing mice were injected i.v. with 100 μg of indicated mLcn2-Fc construct and tumor samples were collected 72 hr. post-dose. Cryosections were stained for CD4 or CD8 (medium gray) and human IgG (light gray). […] 4′,6-diamidino-2-phenylindole (DAPI) nuclear staining shown in dark gray.
(§3) In these experiments constructs were injected i.v. into C57/B16 mice bearing B16 melanomas. Three days after injection, tumor and tissue samples were collected and doublestained using antibodies recognizing either CD4 or CD8 and mLcn2 (e.g. human IgG-Fc). Membranes of both intratumoral CD4+ and CD8+ T cells were decorated with mLcn2 which was not detected on other cell types.

pituicytes = test: In vivo binding of mLcn2 variants to cells within the pituitary gland; details: naïve mice, i.v. 100 μg, 48 hr post-dose, human IgG staining
Description: FIG. 5: Binding of CTLA-4 antagonist mLcn2 variants to cells within the pituitary gland.
as §2
FIG. 18: Naïve mice were injected i.v. with 100 μg of indicated mLcn2-Fc construct and tissue samples were collected 48 hr. post-dose. Cryosections were stained for human IgG (light gray).
as §3

[5] = test system: CD4/CD8 negative cells in the spleen; test: In vivo binding of mLcn2 constructs in the spleen; design: species or system mice; details: not shown; potentially due to FcR binding
Description: as §2
FIG. 16: Naïve mice were injected i.v. with 100 μg of indicated mtLCN2-Fc construct and tissue samples were collected 48 hr. post-dose. Cryosections were stained for CD4 or CD8 (medium gray) and human IgG (light gray) from the spleen.
as §3

Molecule | SEC elution volume of construct incubated with CTLA-4 (CTLA-4) | SEC elution of admixture with CTLA-4-Fc (CTLA-4; in the absence of MMP9) | SEC elution of admixture with CTLA-4-Fc (CTLA-4; incubation with MMP9) | masking of CTLA-4 binding (SPR) [1] | binding to regulatory T-cells (AF647 staining) [2] | binding to CTLA4-Fc expressing Tni cells [3] | staining of CD4 or CD8 TILs in tumor [4] | binding to pituitary gland cells (pituicytes) | binding in the spleen [5] | staining of CD4 or CD8 TILs in tumor ([4]; listed as noncleavable masked mLcn2)
B1 | 12.85 mL | eluted at the same position as the individual components | earlier elution, indicating the formation of a heterodimeric complex | effectively occludes CTLA-4 | significantly reduced binding to cells | limited binding | membrane staining of tumor-infiltrating lymphocytes (TILs) | did not bind to normal tissue constituents | bound to CD4/CD8 negative cells in the spleen | –
B2 | 12.85 mL | – | No shift | – | – | – | no reactivity | – | – | weak or no reactivity

Reference: patent US10689423B2, “CTLA4-binding protein peptide-linker masks” (City of Hope, priority 2015, dated 2020)
